Measurements taken from paper PMC4336329 (PLoS ONE, 2015).
Out of some 310,000 compounds screened, about 14,000 (4.5%) showed an effect of 50% or more. The effect is printed as a negative number. Some of the results follow.

target: human ether-à-go-go-related gene (hERG) potassium channel (human, UniProt Q12809); test: primary screen, population patch clamp on CHO cells stably expressing hERG
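Note: peak tail current of the secondary pulse compared with the same well before compound.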

Sequence of human ether-à-go-go-related gene (hERG) potassium channel (Q12809 whole entry, looked up): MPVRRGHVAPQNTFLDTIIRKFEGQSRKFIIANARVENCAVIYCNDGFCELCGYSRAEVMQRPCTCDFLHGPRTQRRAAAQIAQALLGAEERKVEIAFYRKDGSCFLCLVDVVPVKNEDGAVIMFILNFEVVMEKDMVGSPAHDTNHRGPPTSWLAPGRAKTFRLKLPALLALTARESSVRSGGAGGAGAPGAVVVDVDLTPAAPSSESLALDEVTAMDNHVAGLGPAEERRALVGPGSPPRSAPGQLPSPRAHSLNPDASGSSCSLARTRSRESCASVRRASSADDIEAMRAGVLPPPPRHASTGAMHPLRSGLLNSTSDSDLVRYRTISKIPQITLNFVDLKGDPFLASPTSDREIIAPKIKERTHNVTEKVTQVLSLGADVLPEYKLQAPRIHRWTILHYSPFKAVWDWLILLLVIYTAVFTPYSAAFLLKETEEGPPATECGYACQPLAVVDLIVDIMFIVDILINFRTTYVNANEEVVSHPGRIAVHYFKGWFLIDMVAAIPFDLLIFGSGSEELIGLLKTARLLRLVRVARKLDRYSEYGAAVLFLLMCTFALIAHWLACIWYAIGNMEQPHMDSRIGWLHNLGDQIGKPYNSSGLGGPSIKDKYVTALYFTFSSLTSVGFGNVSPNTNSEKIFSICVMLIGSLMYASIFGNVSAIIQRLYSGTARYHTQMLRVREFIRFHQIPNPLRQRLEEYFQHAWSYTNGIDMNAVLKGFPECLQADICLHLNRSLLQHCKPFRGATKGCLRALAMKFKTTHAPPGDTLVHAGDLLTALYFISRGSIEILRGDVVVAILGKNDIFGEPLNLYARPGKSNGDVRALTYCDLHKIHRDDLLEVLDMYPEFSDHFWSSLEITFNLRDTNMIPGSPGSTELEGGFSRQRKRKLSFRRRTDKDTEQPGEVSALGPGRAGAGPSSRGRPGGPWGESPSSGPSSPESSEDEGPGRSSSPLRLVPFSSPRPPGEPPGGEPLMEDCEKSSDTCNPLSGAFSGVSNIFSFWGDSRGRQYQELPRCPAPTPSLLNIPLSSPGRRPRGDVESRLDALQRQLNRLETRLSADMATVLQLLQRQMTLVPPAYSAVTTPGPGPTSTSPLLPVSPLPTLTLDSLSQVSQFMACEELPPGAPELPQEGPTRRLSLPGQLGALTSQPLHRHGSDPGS

SMILES	hERG current change (%, negative = inhibition) at 10uM [%]
CCC(=O)Nc1ccc(NC(=S)NC(=O)/C=C/c2ccco2)cc1	2.85
CCOC(=O)c1c(NC(=O)c2c(N)n(CCCOC)c3nc4ccccc4nc23)sc2c1CCCC2	-0.19
CN1CCN(C(=O)C23CC4CC(C2)CC(c2ccccc2)(C4)C3)CC1.Cl	4.85
CCOc1ccc(N(CC)C(=O)CCS(=O)(=O)c2cccc3nonc23)cc1	-4.92
CN(CC(=O)Nc1ccc(F)cc1)C(=O)c1cc([N+](=O)[O-])ccc1N1CCOCC1	-24.9
O=C(Nc1cccnc1)C1CCN(S(=O)(=O)c2cccc3nonc23)CC1	-0.862
CC(C)NS(=O)(=O)c1ccc(OCC(=O)N2CCCC2)cc1	-12.9
Cc1[nH]nc2c1C(c1ccsc1C)C(C#N)=C(N)O2 (stereo not shown)	2.25
COc1cc(NC(=S)NC(=O)c2ccccc2F)ccc1NC(=O)c1cccs1	1.66
Cl.O=C(CCc1ccc(S(=O)(=O)N2CCOCC2)cc1)N1CCN(Cc2ccc3c(c2)OCO3)CC1	-34.3
Cc1cc([N+](=O)[O-])cc([N+](=O)[O-])c1NCC(C)C	-18.7
CCOc1ccc(N(C)S(=O)(=O)c2csc(C(N)=O)c2)cc1	8.51
O=C(C(c1ccccc1)c1ccccc1)N1CCN(Cc2ccco2)CC1.O=C(O)C(=O)O	-9.93
CC(=O)NS(=O)(=O)c1ccc(NC(=O)/C=C/c2ccccc2Cl)cc1	8.86
COc1ccccc1C(=O)NC(CCSC)C(=O)OC(C)C(N)=O (stereo not shown)	10.8
O=C(Cn1c(=O)oc2ccccc21)c1ccccc1	-5.11
Cc1ccc(S(=O)(=O)NCC(=O)N(CC(=O)NCc2ccccc2)CC2CCCO2)cc1 (stereo not shown)	-6.78
Cc1cc(C)c(S(=O)(=O)N2CCOC2CNC(=O)C(=O)NCCN2CCOCC2)c(C)c1 (stereo not shown)	9.75
O=C(Cc1ccccc1)CC1(O)C(=O)Nc2ccccc21 (stereo not shown)	12
Cc1ccc(C)c(N2CCN(C(=O)CCS(=O)(=O)c3ccc4c(c3)oc(=O)n4C)CC2)c1	-48.6
Cc1ccc(-c2nc(CN3CCCCC3)cc(CN3CCCCC3)c2O)cc1.Cl	-62.5
Cc1nn(C)c(C)c1CN(Cc1nc(CCC(C)C)no1)C(C)C	13

SMILES	hERG current change (%, negative = inhibition) at 10uM [%]
CCCN1Cc2cccc(C(=O)Nc3ccc4c(c3)OCO4)c2C1=O	0.165
O=C(Cc1ccccc1)Nc1c(Cl)ccc2nsnc12	-2.82
COc1ccc(S(=O)(=O)N(CC(=O)N2CCOCC2)Cc2ccccc2)cc1	-16.5
O=Nc1ccc(O)c2ncccc12	1.37
COC(=O)c1nn(-c2ccccc2)c(Sc2ccc(OC)cc2)c1/C=N/O	-1.84
O=C(COC(=O)/C=C/c1ccccc1Cl)NCCNC(=O)COC(=O)/C=C/c1ccccc1Cl	8.67
COc1cccc(C(=O)OCCN2CCOCC2)c1.Cl	6.33
CN(C)c1ccc(-c2noc(C3CCN(S(=O)(=O)c4ccc(C(=O)O)cc4)CC3)n2)cc1	-1.13
CCN(CC)S(=O)(=O)c1cccc(C(=O)N[C@H](C(=O)OCC(N)=O)C(C)C)c1	4.04
CCOc1ccccc1NC(=O)Cc1c(F)cccc1Cl	1.89
CCC(C(=O)NCCCN1CCCC1=O)n1c2ccccc2c2nc(=O)cc(C)n21 (stereo not shown)	12.2
O=C(CCc1nnc2ccc(N3CCC4(CC3)OCCO4)nn12)Nc1ccc(F)cc1	-40.2
Cn1c(C(=O)O)c(CC(=O)Nc2ccc3c(c2)OCCO3)c2ccccc21	28
O=C(NCCc1ccccc1)C1CCN(Cc2ccccc2F)CC1.O=C(O)C(=O)O	1.53
c1ccc(C2=Nc3c(ccc4ccccc34)C(c3ccncc3)=NN2)cc1	4.64
COC(=O)c1cccc(CSc2nc3ccccc3[nH]2)c1	-22.5
Cc1cc(NC(=O)c2nn(C)c(C)c2[N+](=O)[O-])no1	10.5
Cc1ccc(-c2csc3nnc(SCC(=O)Nc4nsc(-c5ccccc5)n4)n23)cc1	-62.9
CCc1nnc2n1N=C(c1ccc(Br)cc1)CS2	-3.75
Cc1ccc(NC(=O)CCC(=O)OCC(=O)c2ccc(-c3ccccc3)cc2)cc1	-3.97
Cc1ccc(C(=O)CCC2CCCC2=O)cc1 (stereo not shown)	-1.6
Cc1ccc(C(=O)Nc2ccc(Br)c(C(F)(F)F)c2)cc1	4.38

SMILES	hERG current change (%, negative = inhibition) at 10uM [%]
CC(C)C(=O)Nc1cc2c3c(c1)CCN3C(=O)CC2	12.6
COC(=O)C1=NNC2(c3ccc(Cl)cc3)C(=O)N(c3ccccc3)C(=O)C12 (stereo not shown)	-3.13
COc1ccc(-c2csc(NC(=O)C3CSC4(C)CCC(=O)N34)n2)cc1 (stereo not shown)	17.7
CCN(C(=O)CN1CCN(c2cccc(Cl)c2)CC1)c1c(N)n(Cc2ccccc2)c(=O)[nH]c1=O	1.16
COc1cccc(/C=N/NC(=O)c2ccc3nc[nH]c3c2)c1	11.8
CCOC(=O)c1c(-c2ccc(C)o2)csc1NC(=O)CN1CCC(C(N)=O)CC1	-49.6
CC1Cc2cc(C3(O)C(=O)c4ccccc4C3=O)ccc2N1 (stereo not shown)	0.579
CCOC(=O)c1cnc(SCc2ccc(C(C)(C)C)cc2)nc1N	3.26
CCOC(=O)C1CCCN(C(=O)CC(C)c2ccccc2)C1 (stereo not shown)	-1.45
COC(=O)C1=C(N)c2ccccc2C1(C#N)c1ccccc1 (stereo not shown)	-10.2
O=C(Cn1nc(C(F)(F)F)c2c1CCC2)Nc1ccccc1C(F)(F)F	9.54
COc1ccc(-c2c(C)c3cc(O)ccc3oc2=O)cc1OC	5.27
Fc1ccc(CNC(=S)Nc2cccc(Cl)c2)cc1	-1.57
CCOC(=O)c1cnc2ccc(OCC)cc2c1N1CCN(c2ccccc2)CC1	13.9
O=C(c1ccc(S(=O)(=O)Nc2ccc(F)cc2)cc1)N1CCN(c2ccccn2)CC1	-27.4
CC(C)(C)c1ccc(C(=O)NCc2nnc(SCC(=O)NC3CCCCC3)o2)cc1	4.98
Cc1cc(N2C(=O)C3C4CC(c5ccccc5)C(C4)C3C2=O)no1 (stereo not shown)	5.27
O=c1[nH]c(N2CCN(Cc3ccccc3)CC2)nc2c1CCC2	18.9
Nc1nnc(SCc2cc3c(cc2Cl)OCO3)s1	-14.1
CCOC(=O)Cn1nc(C)c(NC(=O)CCc2ccc(OC)cc2)c1C	24.4
Cc1ccc(NC(=S)NN(C)c2nc(C)cnc2C)cc1	6.26
CC(NC(=O)Cc1cccs1)c1ccncc1 (stereo not shown)	3.83

SMILES	hERG current change (%, negative = inhibition) at 10uM [%]
CC(C)C[C@H](NC(=O)OC(C)(C)C)C(=O)N[C@@H](CO)[C@H](O)[C@@H]1C[C@@H]1C(=O)NC1CCCCC1	4.59
O=C(Cn1ccc2ccccc2c1=O)NCCC(=O)NC1CCN(Cc2ccccc2)CC1	-3.36
Cn1c(N2CCN(C(=O)NCc3ccccc3)CC2)nc2ccccc21	-60
Cc1ccc(S(=O)(=O)N(C)C)cc1NC(=O)CCCNC(=O)c1ccc(Cl)cc1	-13.8
Cc1ccc(-c2ccc(C)c(N)c2C)c(C)c1N	11.4
CCN(c1ccc(OC)cc1)c1ncnc2nc[nH]c12	-8.04
CN(C(=O)c1ccc(OC2CCN(S(=O)(=O)N(C)C)CC2)cc1)C1CCCCC1	28.5
COc1ccc2oc(C(=O)OCC(=O)NC3CCCC3)c(C)c2c1	0.285
CCN(CC1CCCO1)C(=O)c1cc(COc2ccc(F)cc2F)on1 (stereo not shown)	-14.8
Cn1c(O)c(C(c2ccccn2)c2c(O)n(C)c(=S)n(C)c2=O)c(=O)n(C)c1=S	18.9
Cc1c(Cl)cccc1NC(=S)N1CCCN(Cc2ccccc2F)C1	3
O=C(NNC(=O)c1ccc2nonc2c1)Nc1ccc(Cl)cc1	9.22
O=C(N/N=C/c1ccc(F)cc1)c1ccccc1	24.8
CN(C)CC#CCC(O)(c1ccccc1)c1ccccc1	-2.15
O=C(c1cccc(S(=O)(=O)N2CCCC2)c1)N1CCCC(C(F)(F)F)C1 (stereo not shown)	2.39
COc1cccc(CNC(=O)C2CCCN(S(=O)(=O)c3cccc4nonc34)C2)c1 (stereo not shown)	-0.218
O=C(COc1ccc(Cl)cc1)Nc1cccc(-c2ccc3nncn3n2)c1	-51.9
O=C(Cc1cccs1)Nc1ccc(-c2nnc(-c3ccccc3)o2)cc1	0.14
CCCCOc1ncnc2c1[nH]c1ccccc12	20.1
O=C(O)CCC(=O)NNC(=O)c1ccc([N+](=O)[O-])cc1	-9.06
CS(=O)(=O)N(CC(=O)Nc1ccc2c(c1)OCCO2)c1ccc2c(c1)OCO2	-0.586
COc1ccc(S[C@@H](CCN2CC[C@H](C)CCC2=O)c2ccccc2)cc1	-5.65
